# This is one part of the list.
# B1: PX15618A-bth-503-24-503 (Bacteroides thetaiotaomicron) (protein)
# chain: NKSEDKLSGDDFWAQGNETNAEAFLLSIYNSFRNATMSQRPFLTYSGDMRCAPITAYSTGDKYVAYLANNDMGELRNTYPDDARGGLIMQWDVFYTAIQDANILLAEIDKVPGMDELKRSRFKAEAIFMRSLSYFFIVRAFGDVPYYTNAYNEAPLPRTNMVIVLQNCLADLQPLLDDDPGAEVLPWSYSSYSSKGIRASRGSVIALMMHINLWLVQFDAQNKEQYYRNVVSLGEELERNNGAYSLLDINRSSVIFAGGSDEGLFEIAQNINFNEIFMMNAKFSDNVSYSCLNKSMPLFCYSGDYLMTLFPMYEDDARKELWFDEKIYSTSVSSSAPKEIKKFWNIDTYGNGTITSNSGNQIVFRYAGALLLYAEALAALGTNDTKACELLNRVRNRAHASEINTSGSELMDAIFWERCRELIGEGHYYYDLVRTGKVYNRNYCMNPMTRTNFNVGAWTWPIHRNALKNNTQIGLNLFWE
# What was measured:
# Assay in all cases: glycan array binding signal (z-score within array); higher = stronger binding
# Conditions in all cases: glycan notation: IUPAC condensed, linker removed
# [1] = molecular target: GlcNAc(b1-4)GlcNAc(b1-4)GlcNAc(b1-4)GlcNAc(b1-4)GlcNAc(b1-4)GlcNAc
# In short: (§1)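 Columns mapping to the same glycan were averaged after glycan names were converted to IUPAC-condensed notation. The data come from 3228 arrays in the Consortium for Functional Glycomics database, limited to those with an available protein sequence. Binding is reported as a within-array Z-score averaged across arrays of one protein sequence and across linkers.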
# [2] = molecular target: GlcNAc(b1-4)[GlcNAc(b1-6)]GalNAc
# In short: as §1
# [3] = molecular target: GlcNAc(b1-6)Gal(b1-4)GlcNAc
# In short: as §1
# GlcNAc(b1-6)GalNAc = molecular target: GlcNAc(b1-6)GalNAc
# In short: as §1
# [4] = molecular target: GlcNAc6S(b1-3)Gal(b1-4)GlcNAc
# In short: as §1
# Kdn(a2-3)Gal(b1-3)GalNAc = molecular target: Kdn(a2-3)Gal(b1-3)GalNAc
# In short: as §1
# Kdn(a2-3)Gal(b1-3)GlcNAc = molecular target: Kdn(a2-3)Gal(b1-3)GlcNAc
# In short: as §1
# Kdn(a2-3)Gal(b1-4)Glc = molecular target: Kdn(a2-3)Gal(b1-4)Glc
# In short: as §1
# Kdn(a2-3)Gal(b1-4)GlcNAc = molecular target: Kdn(a2-3)Gal(b1-4)GlcNAc
# In short: as §1
# [5] = molecular target: Kdn(a2-3)Gal(b1-4)[Fuc(a1-3)]GlcNAc
# In short: as §1
# Kdn(a2-6)Gal(b1-4)GlcNAc = molecular target: Kdn(a2-6)Gal(b1-4)GlcNAc
# In short: as §1
# [6] = molecular target: Man(a1-2)Man(a1-2)Man(a1-3)Man
# In short: as §1
# [7] = molecular target: Man(a1-2)Man(a1-2)Man(a1-6)[Man(a1-3)]Man
# In short: as §1
# Man(a1-2)Man(a1-3)Man = molecular target: Man(a1-2)Man(a1-3)Man
# In short: as §1
# [8] = molecular target: Man(a1-2)Man(a1-3)[Man(a1-2)Man(a1-6)]Man
# In short: as §1
# [9] = molecular target: Man(a1-2)Man(a1-3)[Man(a1-2)Man(a1-6)]Man(a1-6)[Man(a1-2)Man(a1-2)Man(a1-3)]Man
# In short: as §1
# [10] = molecular target: Man(a1-2)Man(a1-3)[Man(a1-2)Man(a1-6)]Man(a1-6)[Man(a1-2)Man(a1-2)Man(a1-3)]Man(b1-4)GlcNAc(b1-4)GlcNAc
# In short: as §1
# [11] = molecular target: Man(a1-2)Man(a1-3)[Man(a1-6)]Man(a1-6)[Man(a1-2)Man(a1-3)]Man(b1-4)GlcNAc(b1-4)GlcNAc
# In short: as §1
# [12] = molecular target: Man(a1-2)Man(a1-6)[Man(a1-3)]Man(a1-6)[Man(a1-2)Man(a1-2)Man(a1-3)]Man
# In short: as §1
# [13] = molecular target: Man(a1-2)Man(a1-6)[Man(a1-3)]Man(a1-6)[Man(a1-2)Man(a1-2)Man(a1-3)]Man(b1-4)GlcNAc(b1-4)GlcNAc
# In short: as §1
# Man(a1-3)[Man(a1-6)]Man = molecular target: Man(a1-3)[Man(a1-6)]Man
# In short: as §1
# [14] = molecular target: Man(a1-3)[Man(a1-6)]Man(a1-6)[Man(a1-2)Man(a1-3)]Man(b1-4)GlcNAc(b1-4)GlcNAc
# In short: as §1
# [15] = molecular target: Man(a1-3)[Man(a1-6)]Man(a1-6)[Man(a1-3)]Man
# In short: as §1
# [16] = molecular target: Man(a1-3)[Man(a1-6)]Man(a1-6)[Man(a1-3)]Man(b1-4)GlcNAc(b1-4)GlcNAc
# In short: as §1
# [17] = molecular target: Man(a1-3)[Man(a1-6)]Man(b1-4)GlcNAc(b1-4)GlcNAc
# In short: as §1
# [18] = molecular target: Man(a1-3)[Man(a1-6)]Man(b1-4)GlcNAc(b1-4)[Fuc(a1-6)]GlcNAc
# In short: as §1
# Man(a1-6)Man = molecular target: Man(a1-6)Man
# In short: as §1
# Man(b1-4)GlcNAc = molecular target: Man(b1-4)GlcNAc
# In short: as §1
# MurNAc(b1-4)GlcNAc = molecular target: MurNAc(b1-4)GlcNAc
# In short: as §1
# Neu5Ac(a2-3)Gal = molecular target: Neu5Ac(a2-3)Gal
# In short: as §1
# [19] = molecular target: Neu5Ac(a2-3)Gal(b1-3)GalNAc
# In short: as §1
# [20] = molecular target: Neu5Ac(a2-3)Gal(b1-3)GalNAc(b1-3)Gal(a1-4)Gal(b1-4)Glc
# In short: as §1
# [21] = molecular target: Neu5Ac(a2-3)Gal(b1-3)GalNAc(b1-4)[Neu5Ac(a2-3)]Gal(b1-4)Glc
# In short: as §1
# [22] = molecular target: Neu5Ac(a2-3)Gal(b1-3)GalNAc(b1-4)[Neu5Ac(a2-8)Neu5Ac(a2-3)]Gal(b1-4)Glc
# In short: as §1
# [23] = molecular target: Neu5Ac(a2-3)Gal(b1-3)GalNAc6S
# In short: as §1
# [24] = molecular target: Neu5Ac(a2-3)Gal(b1-3)GlcNAc
# In short: as §1
# [25] = molecular target: Neu5Ac(a2-3)Gal(b1-3)GlcNAc(b1-2)Man
# In short: as §1
binder,measurement,setting,value
B1,glycan array binding signal (z-score),[1],0.318
same,glycan array binding signal (z-score),[2],-0.498
same,glycan array binding signal (z-score),[3],-0.704
same,glycan array binding signal (z-score),GlcNAc(b1-6)GalNAc,-0.3
same,glycan array binding signal (z-score),[4],-0.37
same,glycan array binding signal (z-score),Kdn(a2-3)Gal(b1-3)GalNAc,0.228
same,glycan array binding signal (z-score),Kdn(a2-3)Gal(b1-3)GlcNAc,0.094
same,glycan array binding signal (z-score),Kdn(a2-3)Gal(b1-4)Glc,0.422
same,glycan array binding signal (z-score),Kdn(a2-3)Gal(b1-4)GlcNAc,0.017
same,glycan array binding signal (z-score),[5],-0.505
same,glycan array binding signal (z-score),Kdn(a2-6)Gal(b1-4)GlcNAc,0.229
same,glycan array binding signal (z-score),[6],-0.357
same,glycan array binding signal (z-score),[7],-0.171
same,glycan array binding signal (z-score),Man(a1-2)Man(a1-3)Man,-0.477
same,glycan array binding signal (z-score),[8],-0.505
same,glycan array binding signal (z-score),[9],-0.301
same,glycan array binding signal (z-score),[10],-1.01
same,glycan array binding signal (z-score),[11],-0.835
same,glycan array binding signal (z-score),[12],-0.076
same,glycan array binding signal (z-score),[13],0.419
same,glycan array binding signal (z-score),Man(a1-3)[Man(a1-6)]Man,0.002
same,glycan array binding signal (z-score),[14],-0.281
same,glycan array binding signal (z-score),[15],-0.384
same,glycan array binding signal (z-score),[16],0.524
same,glycan array binding signal (z-score),[17],-0.265
same,glycan array binding signal (z-score),[18],-0.042
same,glycan array binding signal (z-score),Man(a1-6)Man,-0.052
same,glycan array binding signal (z-score),Man(b1-4)GlcNAc,0.123
same,glycan array binding signal (z-score),MurNAc(b1-4)GlcNAc,0.506
same,glycan array binding signal (z-score),Neu5Ac(a2-3)Gal,-0.851
same,glycan array binding signal (z-score),[19],-0.436
same,glycan array binding signal (z-score),[20],-0.355
same,glycan array binding signal (z-score),[21],0.507
same,glycan array binding signal (z-score),[22],-0.27
same,glycan array binding signal (z-score),[23],-0.627
same,glycan array binding signal (z-score),[24],-0.396
same,glycan array binding signal (z-score),[25],-0.001

# — the supplement of paper PMC8728848
